One test addresses HA-VISA (UniProt Q7Z434). The experiment in a line: co-IP; 293T cells cotransfected with Flag- and HA-tagged expression plasmids; NP-40 lysis buffer (20 mM Tris-HCl pH 7.4, 150 mM NaCl, 1 mM EDTA, 1% Nonidet P-40); immunoblotting.
The next test concerns the target T1, HA-tagged IRF3 (UniProt Q14653).
T1 sequence: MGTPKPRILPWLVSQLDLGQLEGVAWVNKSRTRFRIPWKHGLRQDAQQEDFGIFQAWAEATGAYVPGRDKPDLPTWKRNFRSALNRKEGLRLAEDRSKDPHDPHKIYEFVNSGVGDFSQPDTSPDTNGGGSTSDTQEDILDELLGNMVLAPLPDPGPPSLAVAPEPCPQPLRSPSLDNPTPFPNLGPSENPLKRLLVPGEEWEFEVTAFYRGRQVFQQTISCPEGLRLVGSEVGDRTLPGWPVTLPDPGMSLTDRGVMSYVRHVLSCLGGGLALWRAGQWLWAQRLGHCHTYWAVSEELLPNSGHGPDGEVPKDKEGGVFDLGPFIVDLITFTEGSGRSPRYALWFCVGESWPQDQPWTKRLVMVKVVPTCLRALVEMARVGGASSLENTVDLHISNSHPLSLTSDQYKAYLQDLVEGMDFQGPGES
The description is as above.

Protein sequences, listed by entry. Tags and fused reporters are not part of them.
UniProt Q7Z434: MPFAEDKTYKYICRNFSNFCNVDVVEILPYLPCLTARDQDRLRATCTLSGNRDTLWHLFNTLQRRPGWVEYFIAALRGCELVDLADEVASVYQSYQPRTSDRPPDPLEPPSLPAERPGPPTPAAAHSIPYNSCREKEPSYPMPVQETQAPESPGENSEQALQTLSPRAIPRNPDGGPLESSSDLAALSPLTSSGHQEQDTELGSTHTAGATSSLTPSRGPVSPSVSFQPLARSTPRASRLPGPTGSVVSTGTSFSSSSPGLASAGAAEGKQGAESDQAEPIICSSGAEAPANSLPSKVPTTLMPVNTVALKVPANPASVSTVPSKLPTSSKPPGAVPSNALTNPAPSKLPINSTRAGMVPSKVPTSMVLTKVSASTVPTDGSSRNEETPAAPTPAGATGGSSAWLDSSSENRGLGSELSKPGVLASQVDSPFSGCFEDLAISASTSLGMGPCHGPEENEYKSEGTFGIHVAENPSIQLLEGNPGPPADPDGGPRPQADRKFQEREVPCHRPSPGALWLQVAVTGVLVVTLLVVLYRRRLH

The target in the next test is T2, HA-tagged MDA5 (UniProt Q9BYX4).
T2 sequence: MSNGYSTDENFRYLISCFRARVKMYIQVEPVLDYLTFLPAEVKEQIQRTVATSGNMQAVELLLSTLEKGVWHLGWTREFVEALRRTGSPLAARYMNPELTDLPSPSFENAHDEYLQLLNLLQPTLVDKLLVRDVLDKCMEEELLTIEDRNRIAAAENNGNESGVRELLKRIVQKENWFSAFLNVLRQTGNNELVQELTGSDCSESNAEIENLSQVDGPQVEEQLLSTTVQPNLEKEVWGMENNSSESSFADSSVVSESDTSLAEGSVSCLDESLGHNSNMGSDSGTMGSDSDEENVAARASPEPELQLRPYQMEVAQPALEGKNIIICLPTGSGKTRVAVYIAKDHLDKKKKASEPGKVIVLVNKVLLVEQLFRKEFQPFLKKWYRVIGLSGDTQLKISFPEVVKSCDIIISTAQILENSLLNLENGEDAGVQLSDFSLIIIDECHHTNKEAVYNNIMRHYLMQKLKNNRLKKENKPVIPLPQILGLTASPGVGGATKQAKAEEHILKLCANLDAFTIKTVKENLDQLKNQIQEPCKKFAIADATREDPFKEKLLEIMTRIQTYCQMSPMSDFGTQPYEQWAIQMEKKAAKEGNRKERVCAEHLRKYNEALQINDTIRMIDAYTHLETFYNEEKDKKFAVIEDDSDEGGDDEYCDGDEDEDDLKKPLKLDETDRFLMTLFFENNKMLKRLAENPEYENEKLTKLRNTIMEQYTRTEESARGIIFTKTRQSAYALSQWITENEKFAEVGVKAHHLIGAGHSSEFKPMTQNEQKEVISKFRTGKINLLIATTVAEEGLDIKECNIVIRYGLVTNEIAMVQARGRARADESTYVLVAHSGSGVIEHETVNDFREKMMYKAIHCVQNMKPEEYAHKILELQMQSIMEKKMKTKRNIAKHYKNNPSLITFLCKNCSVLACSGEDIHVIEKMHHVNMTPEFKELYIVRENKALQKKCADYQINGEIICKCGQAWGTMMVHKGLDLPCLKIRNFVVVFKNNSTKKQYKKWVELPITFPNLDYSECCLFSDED
The test is described as above.

The next test has as its target T3, HA-tagged RIG-I (UniProt O95786).
T3 sequence: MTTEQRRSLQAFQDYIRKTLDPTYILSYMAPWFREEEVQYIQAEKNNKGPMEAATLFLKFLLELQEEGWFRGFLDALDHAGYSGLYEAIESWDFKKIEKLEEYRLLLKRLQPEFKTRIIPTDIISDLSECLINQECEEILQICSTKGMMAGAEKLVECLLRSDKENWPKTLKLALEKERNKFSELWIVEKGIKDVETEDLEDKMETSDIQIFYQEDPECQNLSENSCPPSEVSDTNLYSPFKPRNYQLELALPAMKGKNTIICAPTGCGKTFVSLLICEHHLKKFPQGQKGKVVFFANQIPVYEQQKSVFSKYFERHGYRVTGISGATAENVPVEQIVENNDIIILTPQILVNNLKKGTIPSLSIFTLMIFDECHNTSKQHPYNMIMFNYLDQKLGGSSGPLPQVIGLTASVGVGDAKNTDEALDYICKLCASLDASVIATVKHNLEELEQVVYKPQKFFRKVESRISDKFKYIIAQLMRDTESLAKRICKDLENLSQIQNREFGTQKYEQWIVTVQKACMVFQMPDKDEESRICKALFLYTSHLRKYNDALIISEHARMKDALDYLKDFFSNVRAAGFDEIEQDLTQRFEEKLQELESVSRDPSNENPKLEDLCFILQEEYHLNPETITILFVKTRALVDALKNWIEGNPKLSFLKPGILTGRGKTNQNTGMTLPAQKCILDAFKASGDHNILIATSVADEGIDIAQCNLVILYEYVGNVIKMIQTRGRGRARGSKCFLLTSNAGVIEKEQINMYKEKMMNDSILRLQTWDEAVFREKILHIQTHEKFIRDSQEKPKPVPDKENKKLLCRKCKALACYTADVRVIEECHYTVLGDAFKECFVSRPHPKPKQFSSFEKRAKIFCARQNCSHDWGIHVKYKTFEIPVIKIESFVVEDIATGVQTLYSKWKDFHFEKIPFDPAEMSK
Described as above.

Test [1] deals with VISA (endogenous) (human (endogenous in 293T)) (UniProt Q7Z434). The experiment in a line: co-IP.
The target is the same in test [2]. The experiment in a line: co-IP; endogenous proteins; 293T cells (wild-type or GPATCH3-deficient) left uninfected or infected with SeV for the indicated times; NP-40 lysis buffer (20 mM Tris-HCl pH 7.4, 150 mM NaCl, 1 mM EDTA, 1% Nonidet P-40).

These are yes or no findings as the source states them, for the method shown. Binding seen in cells or lysates may run through a third protein. Some entries that bind do so weakly or less than the wild type. For part of these data: Where a sequence is shown, tags or fusion partners need not be part of it.

B1: Flag-GPATCH3 (G patch domain-containing protein 3) (protein, UniProt Q96I76 1-525)
chain: MAVPGEAEEEATVYLVVSGIPSVLRSAHLRSYFSQFREERGGGFLCFHYRHRPERAPPQAAPNSALIPTDPAAEGQLLSQTSATDVRPLSTRDSTPIQTRTCCCVISVRGLAQAQRLIRMYSGRRWLDSHGTWLPGRCLIRRLRLPTEASGLGSFPFKTRKELQSWKAENEAFTLADLKQLPELNPPVLMPRGNVGTPLRVFLELIRACRLPPRIITQLQLQFPKTGSSRRYGNVPFEYEDSETVEQEELVYTAEGEEIPQGTYLADIPASPCGEPEEEVGKEEEEESHSDEDDDRGEEWERHEALHEDVTGQERTTEQLFEEEIELKWEKGGSGLVFYTDAQFWQEEEGDFDEQTADDWDVDMSVYYDRDGGDKDARDSVQMRLEQRLRDGQEDGSVIERQVGTFERHTKGIGRKVMERQGWAEGQGLGCRCSGVPEALDSDGQHPRCKRGLGYHGEKLQPFGQLKRPRRNGLGLISTIYDEPLPQDQTESLLRRQPPTSMKFRTDMAFVRGSSCASDSPSLPD
As to B1, the binding entry is recorded as “binds” with HA-VISA, “no binding” with HA-tagged IRF3, “no binding” in the test with HA-tagged MDA5 and “no binding” with HA-tagged RIG-I.

B2: GPATCH3 (endogenous) (protein, UniProt Q96I76 1-525)
chain: B1 chain
B2: the binding entry in test [1] and in test [2] was “binds” in each case.

Values taken from publication PMC5407853.
